Results as given in PubChem BioAssay AID1347417 (National Center for Advancing Translational Sciences (NCATS), 2020).
The campaign covered roughly 120,000 compounds. About 5,300 (4.4%) were called active. The inconclusive results got no clear call from the source; some entries with a clear call stand among them for comparison. Calls follow the shape of the dose curve; as a rule, active = well fitted inhibition curve with a large enough effect; inconclusive = small, poorly fitted or top-dose-only effect; inactive = no such curve, though single readings can be large or run the other way. A potency beside an inconclusive call is a rough fit, not a confirmed value.
Potency is read from the fitted curve at half-maximal effect; tags tell the direction and shape of the fitted curve.

Test: qHTS Primary assay for Inhibitors of Plasmodium falciparum Dd2 growth in vitro; also: nearly all actives have a fitted effect of over 65% in size;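 as to activity, negative = inhibition: plate controls were DMSO vehicle for no effect and reference drug for full effect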
Details: P. falciparum Dd2 growth, SYBR Green, 72 h; activity, negative = inhibition: at 28.9 µM (top of the series) unless noted; series mostly up to 28.9 µM
In short: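 Readout: SYBR Green fluorescence, 485 nm excitation, 535 nm emission, after ~16 h lysis at 37C. Before that, Dd2-infected red cells (2.5% hematocrit) grew 72 h with compound, 29 uM top final concentration.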
With `CC1CCC(NC(=O)c2ccc3c(c2)N(Cc2ccccc2F)C(=O)c2ccccc2S3)CC1` (stereo not drawn) the Potency was inconclusive: 17.8 µM [inhibitor, single point]. For `CC1(C(=O)N2C[C@@H](Oc3ccccc3)C[C@H]2C(=O)N2CCOCC2)CCCCC1`, the Potency was inconclusive: 17.8 µM [inhibitor, single point]. For `Cc1cccc(NC(c2cccc(F)c2)c2ccc3ccc(C)nc3c2O)n1` (stereo not drawn), the Potency was active: 6.31 µM. In the case of `O=C1CO[C@H]2CCN(Cc3ccc4c(c3)CCO4)CC[C@@H]2N1c1ccccc1`, the “activity, negative = inhibition” value is reported as inactive: -4.87% [at 44.1 µM]. For `COc1ccc(N2Cc3c(ncnc3N3CCC(Cc4ccccc4)CC3)N(C)CC2=O)cc1`, the Potency was inconclusive: 3.98 µM [inhibitor, full curve, poor fit]. In the case of `COc1cc(Nc2nc(SCc3ccccc3F)nc3ccccc23)cc(OC)c1`, the Potency is reported as inconclusive: 17.8 µM [inhibitor, single point]. For `COc1ccc(C)cc1NC(=O)C1(CCO)CC12CCOCC2` (stereo not drawn), the Potency was inconclusive: 12.6 µM [inhibitor, partial curve, poor fit]. With `CCOc1cc(=O)n2c(c1C(=O)Nc1cc(Cl)ccc1OC)CCCC2` the Potency was inconclusive: 11.2 µM [inhibitor, single point]. In the case of `COc1cc(C(=O)N[C@H](C)c2onc(-c3ccccc3)c2C(=O)O)cc(OC)c1OC`, the Potency is reported as inconclusive: 3.98 µM [inhibitor, single point]. In the case of `O=[S+]1([O-])NCC2(CCN(Cc3cccc4ccccc34)C2)Nc2ccccc21` (stereo not drawn), the Potency is reported as active: 12.6 µM. In the case of `Cc1cc(-c2cc3c(nc2-c2ccccc2)nc(C(=O)NC2CCN(C)CC2)n3C)ccn1`, the Potency is reported as active: 6.31 µM. For `Cc1cc(NC(=O)N2CCC(n3cnnc3C3CC3)C2)ccc1Br` (stereo not drawn), the “activity, negative = inhibition” value was inactive: -8.37%. In the case of `CCc1ccc(NC(=O)N2CC(C(=O)N(C)C)C3(CCOCC3)C2)cc1` (stereo not drawn), the Potency is reported as inconclusive: 0.1 µM [inhibitor, full curve, poor fit]. In the case of `COc1ccc(C(=O)NC2CCCc3c2[nH]c2c(Cl)cccc32)cc1OC` (stereo not drawn), the Potency is reported as inconclusive: 12.6 µM [inhibitor, single point]. With `CCOC(=O)c1ccc(NC(=O)Cn2c(-c3cnccn3)nc(C)c(C)c2=O)cc1` the Potency was inconclusive: 3.98 µM [inhibitor, single point]. With `Cc1ccc2c(CC(=O)N3CCN(c4cccc(Cl)c4)CC3)coc2c1` the “activity, negative = inhibition” value was inactive: -1.3%. For `COc1cccc(Nc2ccc3c(n2)C(C)(C(=O)NCC2CC2)CN(C)C3)c1` (stereo not drawn), the Potency was inconclusive: 0.282 µM [inhibitor, full curve, poor fit]. For `Cc1cccc(N(C)C(=O)Cn2c(=O)n(-c3cccc(C)c3)c(=O)c3c2cc(C)n3C)c1`, the “outcome” value was “inactive”. In the case of `CCn1nccc1C(=O)N1[C@H]2CC[C@@H]1c1cnc(-c3ccc(F)cc3)nc1C2`, the Potency is reported as inconclusive: 17.8 µM [inhibitor, single point]. With `CCOc1ccc(-c2cn3c(n2)sc2cc(C(=O)NCCCN4CCCCCC4)ccc23)cc1` the Potency was active: 2.24 µM. With `CCc1ccc2oc(C(=O)NCC(c3ccc(OC)cc3)N3CCCCC3)c(C)c2c1` (stereo not drawn) the Potency was active: 10 µM. For `Cc1cc(C)c2nc(N(Cc3cccnc3)C(=O)CCS(=O)(=O)c3ccccc3)sc2c1`, the Potency was inconclusive: 11.2 µM [inhibitor, single point]. For `O=C(CC1CCN(C(=O)c2cccs2)C1)NCc1ccccc1` (stereo not drawn), the Potency was inconclusive: 0.631 µM [inhibitor, full curve, poor fit]. For `CC1=C(C(=O)Nc2cccnc2)C(c2ccc(F)cc2)n2nc(-c3cccc(C)c3)nc2N1` (stereo not drawn), the Potency was inconclusive: 11.2 µM [inhibitor, single point]. For `CCOCCCNC(=O)NCC1Cn2cccc2CN1Cc1ccccc1` (stereo not drawn), the Potency was inconclusive: 8.91 µM [inhibitor, single point]. For `COc1ccc(NC(=O)c2ccc3c(c2)OCCN(CCC(C)C)C3)cn1`, the Potency was inconclusive: 2 µM [inhibitor, partial curve, poor fit]. With `O=C(COc1ccccc1F)Nc1ccc2nc(SCC(=O)N3CCc4ccccc43)sc2c1` the Potency was inconclusive: 12.6 µM [inhibitor, single point]. With `Nc1nc2c(c(NC3CC3)n1)CCN(C(=O)CCCn1cncn1)CC2` the “activity, negative = inhibition” value was inactive: -1.43%. In the case of `Cc1ccc(NC(=O)C2CC(=O)Nc3ncnn32)cc1C` (stereo not drawn), the “activity, negative = inhibition” value is reported as inactive: -2.34%. For `CCn1cc(C(=O)N2C[C@@H](COC)[C@H](c3nc(C)no3)C2)cn1`, the “activity, negative = inhibition” value was inactive: 24%. For `CC(C)C1C(=O)NCCN1C(=O)c1coc(COc2ccc3c(c2)OCO3)n1` (stereo not drawn), the “activity, negative = inhibition” value was inactive: 18.1%. In the case of `COCc1nc(C2CC(NC(=O)c3cc(-c4ccsc4)n[nH]3)C2)cc(=O)[nH]1` (stereo not drawn), the Potency is reported as inconclusive: 1 µM [inhibitor, full curve, poor fit]. For `COC1CCC12CCN(Cc1ccc(C)o1)CC2` (stereo not drawn), the “outcome” value was “inactive”. With `Cc1cc2nc(-c3ccc(OCc4ccccc4C)cc3)cc(C(F)(F)F)n2n1` the Potency was inconclusive: 8.91 µM [inhibitor, partial curve]. In the case of `O=C(NC(C(=O)N1CCOCC1)C1CCN(C(=O)c2cccc(F)c2)CC1)c1ccc2c(c1)OCO2` (stereo not drawn), the Potency is reported as inconclusive: 0.708 µM [inhibitor, full curve, poor fit]. With `OC[C@@H](O)CNc1nccc(C2(c3ccccc3Cl)CCNCC2)n1` the “activity, negative = inhibition” value was inactive: 25.4%. In the case of `CC1CCN(C(=O)c2c(NC(=O)c3ccccc3Cl)sc3c2CCC(C(C)(C)C)C3)CC1` (stereo not drawn), the Potency is reported as active: 11.2 µM. With `CCN(CC)Cc1cnc2c(C(=O)NCc3ccsc3)cnn2c1` the Potency was inconclusive: 20 µM [inhibitor, single point]. For `Cc1nn(-c2ccc(F)cc2)c(C)c1[C@@H]1C=C[C@@H](NC(=O)CC(C)(C)CC(=O)O)C1`, the Potency was inconclusive: 10 µM [inhibitor, partial curve, poor fit]. In the case of `COCCNC(=O)CCCn1c(SCC(=O)Nc2ccc(F)cc2)nc2c(sc3ccccc32)c1=O`, the Potency is reported as inconclusive: 17.8 µM [inhibitor, single point]. For `Cc1nc(N2CCC(NCCNc3ccncc3C)CC2)c2ccsc2n1`, the Potency was active: 10 µM. For `CCc1noc(-c2cn(C3CCN(C(=O)c4ccc(F)c(F)c4)CC3)nn2)n1`, the Potency was inconclusive: 0.316 µM [inhibitor, full curve]. For `Cc1nc2cc(-c3ccccc3)nn2c(C)c1CCC(=O)N1CCN(c2ccc(F)cc2)CC1`, the Potency was inconclusive: 17.8 µM [inhibitor, single point].
